Laboratory results published in paper PMC12820563, “FoxP3 forms a head-to-head dimer in vivo and stabilizes its multimerization on adjacent microsatellites”.
Some of the results follow.

Molecular target: T1, MBP-FoxP1dN (Mus musculus, UniProt P58462 326-579)
T1 sequence: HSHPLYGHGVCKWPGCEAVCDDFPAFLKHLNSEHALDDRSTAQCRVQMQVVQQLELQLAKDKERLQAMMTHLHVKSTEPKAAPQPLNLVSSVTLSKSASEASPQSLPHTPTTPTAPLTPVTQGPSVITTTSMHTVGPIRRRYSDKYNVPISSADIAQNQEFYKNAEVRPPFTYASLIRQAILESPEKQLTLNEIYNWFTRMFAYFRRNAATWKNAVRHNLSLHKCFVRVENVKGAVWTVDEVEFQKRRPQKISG
Experiment: PD-seq (MBP pull-down with sequencing); 20 mM Tris-HCl pH 7.5, 100 mM NaCl, 1.5 mM MgCl2, 0.4 uM protein, 0.1 uM dsDNA library, 30 min, room temperature, amylose pull-down; high values mean tight binding
Settings: protein: recombinant; tags: His6-MBP; chain copies: 2; dsDNA, one strand shown
In short: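 Binding is the reads-per-million enrichment of pull-down relative to input, pooled across replicates. For this, 0.4 µM His6-MBP-tagged mouse FoxP3 or FoxP1 fragment lacking the N-terminus, made in E. coli, was incubated with 0.1 µM Klenow-filled double-stranded degenerate DNA library for 30 min at room temperature in Tris pH 7.5 buffer with NaCl and MgCl2. Complexes bound to amylose resin were washed three times before proteinase K released the DNA for PCR barcoding and Illumina sequencing.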

Point of comparison: “GATGATTGTTCTCCCAGCTGATGAATTGTTCCCTTCGAGTAAACAAATTTTCCTAATCTTTCTGTTCAAGCGCCATCTAC”, binding signal 1.12 RPM ratio (pull-down/input). Against it:
- GATGATTGTTCTCCCAGCTGATGAATTACCTTAGTCGAGTAAACAAATTTTCCTAATCTTTCTGTTCAAGCGCCATCTAC — lower, 0.91 RPM ratio (pull-down/input)
- GATGATTGTTCTCCCAGCTGATGAATTACAGCGTTCGAGTAAACAAATTTTCCTAATCTTTCTGTTCAAGCGCCATCTAC — lower, 1.07 RPM ratio (pull-down/input)
- GATGATTGTTCTCCCAGCTGATGAATTGCCGCATTCGAGTAAACAAATTTTCCTAATCTTTCTGTTCAAGCGCCATCTAC — higher, 1.26 RPM ratio (pull-down/input)
- GATGATTGTTCTCCCAGCTGATGAATTACCATGGTCGAGTAAACAAATTTTCCTAATCTTTCTGTTCAAGCGCCATCTAC — lower, 0.846 RPM ratio (pull-down/input)
- GATGATTGTTCTCCCAGCTGATGAATTCCACCCTTCGAGTAAACAAATTTTCCTAATCTTTCTGTTCAAGCGCCATCTAC — lower, 0.773 RPM ratio (pull-down/input)
- GATGATTGTTCTCCCAGCTGATGAATTATTGGACTCGAGTAAACAAATTTTCCTAATCTTTCTGTTCAAGCGCCATCTAC — lower, 0.979 RPM ratio (pull-down/input)
- GATGATTGTTCTCCCAGCTGATGAATTCGAGAACTCGAGTAAACAAATTTTCCTAATCTTTCTGTTCAAGCGCCATCTAC — lower, 0.811 RPM ratio (pull-down/input)
- GATGATTGTTCTCCCAGCTGATGAATTAGAATAATCGAGTAAACAAATTTTCCTAATCTTTCTGTTCAAGCGCCATCTAC — higher, 1.24 RPM ratio (pull-down/input)
- GATGATTGTTCTCCCAGCTGATGAATTTTAACAATCGAGTAAACAAATTTTCCTAATCTTTCTGTTCAAGCGCCATCTAC — higher, 1.32 RPM ratio (pull-down/input)
- GATGATTGTTCTCCCAGCTGATGAATTTTGGAATTCGAGTAAACAAATTTTCCTAATCTTTCTGTTCAAGCGCCATCTAC — lower, 0.924 RPM ratio (pull-down/input)
- GATGATTGTTCTCCCAGCTGATGAATTTAGTCGTTCGAGTAAACAAATTTTCCTAATCTTTCTGTTCAAGCGCCATCTAC — lower, 0.97 RPM ratio (pull-down/input)
- GATGATTGTTCTCCCAGCTGATGAATTCCATCTGTCGAGTAAACAAATTTTCCTAATCTTTCTGTTCAAGCGCCATCTAC — lower, 0.871 RPM ratio (pull-down/input)
- GATGATTGTTCTCCCAGCTGATGAATTGTACCTATCGAGTAAACAAATTTTCCTAATCTTTCTGTTCAAGCGCCATCTAC — lower, 0.989 RPM ratio (pull-down/input)
- GATGATTGTTCTCCCAGCTGATGAATTTTACGGATCGAGTAAACAAATTTTCCTAATCTTTCTGTTCAAGCGCCATCTAC — lower, 0.879 RPM ratio (pull-down/input)
- GATGATTGTTCTCCCAGCTGATGAATTGAGCCCGTCGAGTAAACAAATTTTCCTAATCTTTCTGTTCAAGCGCCATCTAC — lower, 0.741 RPM ratio (pull-down/input)
- GATGATTGTTCTCCCAGCTGATGAATTCGCCTCGTCGAGTAAACAAATTTTCCTAATCTTTCTGTTCAAGCGCCATCTAC — lower, 0.82 RPM ratio (pull-down/input)
- GATGATTGTTCTCCCAGCTGATGAATTGAAAAGGTCGAGTAAACAAATTTTCCTAATCTTTCTGTTCAAGCGCCATCTAC — lower, 0.796 RPM ratio (pull-down/input)
- GATGATTGTTCTCCCAGCTGATGAATTATCGCGATCGAGTAAACAAATTTTCCTAATCTTTCTGTTCAAGCGCCATCTAC — lower, 0.929 RPM ratio (pull-down/input)
- GATGATTGTTCTCCCAGCTGATGAATTATCGTGGTCGAGTAAACAAATTTTCCTAATCTTTCTGTTCAAGCGCCATCTAC — lower, 0.937 RPM ratio (pull-down/input)
- GATGATTGTTCTCCCAGCTGATGAATTTGCGCGTTCGAGTAAACAAATTTTCCTAATCTTTCTGTTCAAGCGCCATCTAC — the same, 1.12 RPM ratio (pull-down/input)
- GATGATTGTTCTCCCAGCTGATGAATTATTTGCTTCGAGTAAACAAATTTTCCTAATCTTTCTGTTCAAGCGCCATCTAC — higher, 1.56 RPM ratio (pull-down/input)
- GATGATTGTTCTCCCAGCTGATGAATTTGGGGTTTCGAGTAAACAAATTTTCCTAATCTTTCTGTTCAAGCGCCATCTAC — lower, 0.784 RPM ratio (pull-down/input)
- GATGATTGTTCTCCCAGCTGATGAATTCCCTTTCTCGAGTAAACAAATTTTCCTAATCTTTCTGTTCAAGCGCCATCTAC — lower, 0.783 RPM ratio (pull-down/input)
- GATGATTGTTCTCCCAGCTGATGAATTCAAATGCTCGAGTAAACAAATTTTCCTAATCTTTCTGTTCAAGCGCCATCTAC — lower, 1.03 RPM ratio (pull-down/input)
- GATGATTGTTCTCCCAGCTGATGAATTTCAAGTTTCGAGTAAACAAATTTTCCTAATCTTTCTGTTCAAGCGCCATCTAC — lower, 0.908 RPM ratio (pull-down/input)
- GATGATTGTTCTCCCAGCTGATGAATTGCCCTACTCGAGTAAACAAATTTTCCTAATCTTTCTGTTCAAGCGCCATCTAC — lower, 0.904 RPM ratio (pull-down/input)
- GATGATTGTTCTCCCAGCTGATGAATTCGATACGTCGAGTAAACAAATTTTCCTAATCTTTCTGTTCAAGCGCCATCTAC — lower, 0.918 RPM ratio (pull-down/input)
- GATGATTGTTCTCCCAGCTGATGAATTCAATACCTCGAGTAAACAAATTTTCCTAATCTTTCTGTTCAAGCGCCATCTAC — lower, 0.912 RPM ratio (pull-down/input)
- GATGATTGTTCTCCCAGCTGATGAATTTGTGCGTTCGAGTAAACAAATTTTCCTAATCTTTCTGTTCAAGCGCCATCTAC — higher, 1.2 RPM ratio (pull-down/input)
- GATGATTGTTCTCCCAGCTGATGAATTACTGGCGTCGAGTAAACAAATTTTCCTAATCTTTCTGTTCAAGCGCCATCTAC — lower, 0.996 RPM ratio (pull-down/input)
- GATGATTGTTCTCCCAGCTGATGAATTGGTGGGATCGAGTAAACAAATTTTCCTAATCTTTCTGTTCAAGCGCCATCTAC — lower, 0.82 RPM ratio (pull-down/input)
- GATGATTGTTCTCCCAGCTGATGAATTGCACCACTCGAGTAAACAAATTTTCCTAATCTTTCTGTTCAAGCGCCATCTAC — lower, 1.1 RPM ratio (pull-down/input)
- GATGATTGTTCTCCCAGCTGATGAATTACTTTTGTCGAGTAAACAAATTTTCCTAATCTTTCTGTTCAAGCGCCATCTAC — higher, 1.17 RPM ratio (pull-down/input)
- GATGATTGTTCTCCCAGCTGATGAATTTGGTCACTCGAGTAAACAAATTTTCCTAATCTTTCTGTTCAAGCGCCATCTAC — lower, 0.948 RPM ratio (pull-down/input)
- GATGATTGTTCTCCCAGCTGATGAATTAATCAAATCGAGTAAACAAATTTTCCTAATCTTTCTGTTCAAGCGCCATCTAC — lower, 1.04 RPM ratio (pull-down/input)
- GATGATTGTTCTCCCAGCTGATGAATTGCCGTTTTCGAGTAAACAAATTTTCCTAATCTTTCTGTTCAAGCGCCATCTAC — lower, 1.05 RPM ratio (pull-down/input)
- GATGATTGTTCTCCCAGCTGATGAATTAGAGTGTTCGAGTAAACAAATTTTCCTAATCTTTCTGTTCAAGCGCCATCTAC — lower, 1.03 RPM ratio (pull-down/input)
- GATGATTGTTCTCCCAGCTGATGAATTTACAGGGTCGAGTAAACAAATTTTCCTAATCTTTCTGTTCAAGCGCCATCTAC — lower, 1.02 RPM ratio (pull-down/input)
- GATGATTGTTCTCCCAGCTGATGAATTTGTTCACTCGAGTAAACAAATTTTCCTAATCTTTCTGTTCAAGCGCCATCTAC — higher, 1.17 RPM ratio (pull-down/input)
